Source: the RNAGym collection of RNA variant scans (doi:10.1073/pnas.2313332121)
This sample is rich in variants without activity.

B1: TPR 5TU (parent)
chain: GGAUCUUCUCGAUCUAACAAAAAAGACAAAUCUGCCACAAAGCUUGAGAGCAUCUUCGGAUGCAGAGGCGGCAGCCUUCGGUGGCGCGAUAGCGCCAACGUUCUCAACUAUGACACGCAAAACGCGUGCUCCGUUGAAUGGAGUUUAUCAUG

Variants of: B1
Assay: polymerase ribozyme fitness, log enrichment relative to wild type (log ratio); higher = more active; in vitro selection for triplet polymerase activity
Method in brief: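 Genotype fitness is the logarithm of its enrichment divided by wild-type enrichment, using inverse-variance-weighted averages of replicates. That logarithm is base 2. Enrichment was measured by Illumina sequencing of input and output libraries from one triplicate in vitro selection round, with frozen incubation at −7 °C, on PCR-built, transcribed mutant libraries of each subunit of a heterodimeric triplet polymerase ribozyme, retaining genotypes with ≥10 input reads and ≥1 read per output.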

Row | Variant | polymerase ribozyme fitness (log ratio)
1 | G50C U53A C57G A73G C93A C95A U101G A107G A138C U144C | ≤ -4.2
2 | G50C U53A U55A C85G G88C C116G | ≤ -4.2
3 | G50C U53G C125A G126C | ≤ -4.2
4 | G50C U55A C72U C116G A120G C129A | ≤ -4.2
5 | G50C U55A G58A A60U A89U G94C C103U C125G | ≤ -4.2
6 | G50C U55C G100A A115G U127C | ≤ -4.2
7 | G50C U56A U78A G83A G94U C95A | ≤ -4.2
8 | G50C U56G G58C C85U G86C U102G C105G U139G G143U U151A | ≤ -4.2
9 | G50C U78A G92A | ≤ -4.2
10 | G50C U78C C85U C108U | ≤ -4.2
11 | G50C U78G G80A G83A U130A A142U | ≤ -4.2
12 | G50C U101G | -2.64
13 | G50C U102G | -3.32
14 | G50U A60U | -0.536
15 | G50U A73U C87U | -2.26
16 | G50U A91G A106G G140C | ≤ -4.2
17 | G50U A97U A147U | 0.621
18 | G50U C57U G84U C103U | -2.21
19 | G50U C63U A91U | ≤ -4.2
20 | G50U C63U C79G C131G A137C | ≤ -4.2
21 | G50U C63U C85A A110G | -4.19

Row | Variant | polymerase ribozyme fitness (log ratio)
22 | G50U C76A G86A A89C C108A U146C | ≤ -4.2
23 | G50U C85A | -1.4
24 | G50U C87A G112C C123U U148G | ≤ -4.2
25 | G50U C87U A89G | -3.95
26 | G50U C87U G136U | -2.29
27 | G50U C95G G100A | ≤ -4.2
28 | G50U C96U C99A C103G G124C C129A U144G | ≤ -4.2
29 | G50U C96U C108A G136C | ≤ -4.2
30 | G50U G59C C85U C87A G92C A107G A137G A138U | ≤ -4.2
31 | G50U G59U A89G C93A U101G U151C | ≤ -4.2
32 | G50U G59U G83A C103A | ≤ -4.2
33 | G50U G65C A66C C96G | ≤ -4.2
34 | G50U G68A C93U C116A U146C | ≤ -4.2
35 | G50U G80U C108G | ≤ -4.2
36 | G50U G86A | -2.57
37 | G50U G86U | -1.71
38 | G50U G94A U102C C103U | -3.63
39 | G50U U53A G58A A73G C79A C93A A107U C116G G136C | ≤ -4.2
40 | G50U U55A A66G C95U C103A A138U | ≤ -4.2
41 | G50U U56A G94U A106G C116G C123U | -0.9
42 | G50U U56G C57G C69U C96A C99A A107G C116G | ≤ -4.2

Row | Variant | polymerase ribozyme fitness (log ratio)
43 | G50U U77A G86A A97C | ≤ -4.2
44 | G50U U102G | -2.92
45 | G50U U104G G143U | -3.47
46 | G50U U139C | -3.65
47 | G50U U146C | 0.0837
48 | C51A A52G A60U G68A C105U A115G G141U | ≤ -4.2
49 | C51A A52U C75U G86A G100A U135G | ≤ -4.2
50 | C51A A60G C95G U146C U151G | ≤ -4.2
51 | C51A A91G C116A U139A | ≤ -4.2
52 | C51A C57A G92U G124C U144C | ≤ -4.2
53 | C51A C57G G68C A73C C76G G86U G100C A120G A122C U134A | ≤ -4.2
54 | C51A C57U G59U G100C A119U A122U U145G | -4.13
55 | C51A C76A | ≤ -4.2
56 | C51A C76U U109G A137G | ≤ -4.2
57 | C51A C87A G133U C149G | ≤ -4.2
58 | C51A C96A | -1.26
59 | C51A C96A A115G A137U | ≤ -4.2
60 | C51A C118G | -3.24
61 | C51A G58A G74C C96U A107C | ≤ -4.2
62 | C51A G58U G59A C85A | ≤ -4.2
63 | C51A G62U A66U | ≤ -4.2

Row | Variant | polymerase ribozyme fitness (log ratio)
64 | C51A G67A A73G C95A U101G G140U U151G | ≤ -4.2
65 | C51A G67U C79U C93G C99U | ≤ -4.2
66 | C51A G68A A73U C76U C95A C99U | ≤ -4.2
67 | C51A G70A G80C C96G G124U G136C U148C | ≤ -4.2
68 | C51A G74A C85A C114A | ≤ -4.2
69 | C51A G86A G126A G128U G141A | ≤ -4.2
70 | C51A G86U A89U U134A | ≤ -4.2
71 | C51A G140U | -4.11
72 | C51A U53A A66G G81C U90C | ≤ -4.2
73 | C51A U53A C57G C79A A98U C108U | ≤ -4.2
74 | C51A U53C G80C U82G C93A G100A G133A | ≤ -4.2
75 | C51A U55G A60G C93U | -2.7
76 | C51A U102A | -1.41
77 | C51A U134G U144A | -4.17
78 | C51G A52G U53A U56G C57G G86U C96G | ≤ -4.2
79 | C51G A73U | -3.44
80 | C51G A91G G92U U101C | ≤ -4.2
81 | C51G A106G | -3.04
82 | C51G C57U G83A A110G G152C | ≤ -4.2
83 | C51G C75A C95U C118U C125U G126A A137G G140A | ≤ -4.2
84 | C51G C75G | ≤ -4.2
